“And” between values parts separate entries of the source, which are not always exact repeats. Equal values may be shown once.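 96-well plates; 48 h exposure; 5 concentrations. Endpoints by linear interpolation between flanking doses. Not reached: highest tested concentration assigned. GI50 is the concentration that inhibits growth by half. The concentration for full growth arrest is given as TGI.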 Square brackets hold non-standard residues; d marks the D form. Peptide text beside a SMILES is read from it. * marks the point of attachment. NMeV = CN[C@H](C(=O)O)C(C)C; X25 = COc1ccc(CN*)c(OC)c1; Octanoyl = CCCCCCCC(=O)*; dNMeA = CN[C@H](C)C(=O)O
Test system: NCI-H322M lung
Assay: growth of human tumour cells (NCI), 48 h

| SMILES | TGI | GI50 |
| --- | --- | --- |
| CC1=NC(=Cc2cccc(Cl)c2)C(=O)N1n1c(-c2ccccc2)nc2ccccc2c1=O | 94.3 µM | – |
| CCN(CC)CC1c2ccccc2C(CNc2ccccc2)N1C (stereo not given) | > 100 µM | – |
| N#C[C@H](OC1OC(COC2OC(CO)C(O)C(O)C2O)C(O)C(O)C1O)c1ccccc1 (stereo not given in full) | > 250 µM | – |
| O=S(=O)(c1ccc(Cl)cc1)C(Cl)(Cl)Cl | 58.4 µM | 14.7 µM |
| O=C1NC(=O)C(N2C(=O)c3ccccc3C2=O)CC1O (stereo not given) | > 100 µM | > 100 µM |
| CS(=O)(=O)c1ccc(-c2cc(-c3ccc(S(C)(=O)=O)cc3)[n+](-c3cc(-c4ccc(S(C)(=O)=O)cc4)c([O-])c(-c4ccc(S(C)(=O)=O)cc4)c3)c(-c3ccc(S(C)(=O)=O)cc3)c2)cc1 | > 100 µM | – |
| O=C(CCl)NNC1=Nc2ccc(Cl)cc2SC1 | 10.1 µM | – |
| Cc1cc(S(=O)(=O)/N=C(/N)Nc2ccccc2O)c(SCc2ccccc2)cc1Cl | 36.8 µM | 19.1 µM |
| CC(=O)Nc1ccc(SC#N)c2c(NC(C)=O)cccc12 | > 100 µM | – |
| COc1ccc(C2SCC(=O)N2c2ccc(-c3ccc(-n4c(-c5ccccc5)nc5ccccc5c4=O)cc3)cc2)cc1OC (stereo not given) | 34.4 µM | – |
| C/C(=C\c1ccc2ccccc2c1)[N+](=O)[O-] | 14.2 µM | 3.96 µM |
| CC(=O)C(CN(CC(C)C)CC(C)C)C(c1ccccc1)c1c(O)c2ccccc2oc1=O (stereo not given) | > 100 µM | – |
| C=CC(=O)Nc1cccc(Oc2nc(Nc3ccc(N4CCN(C)CC4)cc3)nc3ccsc23)c1 | > 10 µM and 14.4 µM | 0.512 µM and 1.31 µM |
| Cn1c(=O)c2c(nc3n2CC(=O)N3CCCCl)n(C)c1=O | > 100 µM | – |
| COC(=O)c1onc(-c2c(OC)cc(OC)cc2OC)c1C(=O)OC | > 100 µM | – |
| CCN1C(=O)c2cc(OC)c(OC)cc2C(=O)C12OC(=O)c1cc3c(cc12)OCO3 (stereo not given) | > 100 µM | – |
| Cc1ccc(/C=N\NC(=O)c2[nH]c3ccc(F)cc3c2-c2ccccc2)cc1 | > 51.8 µM | 0.053 µM |
| O=C(Nc1nc2ccc([N+](=O)[O-])cc2s1)C(=O)C(C(=O)c1ccccc1F)C1OC(=O)c2ccccc21 (stereo not given) | > 100 µM | – |
| Fc1ccc(/C=N/n2c(-c3ccc(F)c(Cl)c3)nn(CNc3ccccc3C(F)(F)F)c2=S)cc1 | > 100 µM | 63.1 µM |
| C=CCN1C(=O)/C(=C/c2cccs2)N=C1SC/C=C/C | > 100 µM | – |
| COc1cc2c3c(n(C)c(=O)c2cc1OC)-c1cc2c(cc1/C3=C\CCCCN1C(=O)c3ccccc3C1=O)OCO2 | 87.1 µM | 19.9 µM |
| COc1cc2c(cc1C1COc3cc4occc4cc3C1=O)OCO2 (stereo not given) | > 100 µM | – |
| C/C=C1\CN2CCc3c([nH]c4ccccc34)C2CC1C(=O)OC (stereo not given) | > 322 µM | – |

| SMILES | TGI | GI50 |
| --- | --- | --- |
| COc1ccc(C=O)c([N+](=O)[O-])c1 | > 100 µM | – |
| N#Cc1sc2c(c1OC(=O)c1ccccc1)c(=O)n(-c1ccccc1)c(=S)n2-c1ccccc1 | 86.4 µM | – |
| C[C@]12CC[C@@H]3c4cc(OCC(F)(F)F)c(O)cc4CC[C@H]3[C@@H]1CC[C@@H]2O | 14.1 µM | – |
| CC(C)(C)c1cc2c(OC/C=C/c3ccccc3)c(c1)Cc1cc(C(C#N)(OC/C=C/c3ccccc3)OC/C=C/c3ccccc3)cc(c1OC/C=C\c1ccccc1)Cc1cc(C(C)(C)C)cc(c1OC/C=C/c1ccccc1)Cc1cc(C(C#N)(OC/C=C\c3ccccc3)OC/C=C/c3ccccc3)cc(c1OC/C=C\c1ccccc1)C2 (stereo not given) | > 100 µM | – |
| O=C(O)C12C3CCC(CC3)C1(C(=O)O)C1CCC2C1 (stereo not given) | > 100 µM | – |
| CC1=C2[C@@H](CC1)[C@]1(C)O[C@@](c3ccccc3)(C[C@H]1OC(=O)CO)[C@H]2OC(=O)/C=C/c1ccccc1 | 50.1 µM | 19.5 µM |
| CC1(C)C=Cc2c(cc(O)c3c(=O)c4cc(Cl)ccc4[nH]c23)O1 | > 10 µM | – |
| NC(=O)c1csc(C2OC(CO)C(O)C2O)n1 (stereo not given) | > 10000 µM | > 95.7 µM and 70.3 µM |
| CCOc1ccccc1C(=O)N1CCN(c2cc(Cl)cc(Cl)c2)CC1 | 18.7 µM | 0.0706 µM |
| O=C1c2ccccc2-c2cc([N+](=O)[O-])c([N+](=O)[O-])cc21 | 24.6 µM | – |
| CCCCCCCC(=O)N[C@H](C(=O)N[C@H](C(=O)N(C)[C@H](C(=O)N1CCC[C@H]1C(=O)N(C)[C@H](C)C(=O)NCc1ccc(OC)cc1OC)C(C)C)C(C)C)C(C)C (Octanoyl-VV[NMeV]P[dNMeA]-X25) | > 100 µM | – |
| CCc1ccc2c(c1)N(CCO)C1=C(C(=O)OC1)C2c1cccc(Br)c1 (stereo not given) | 20.1 µM | 1.67 µM |
| O=S(=O)(Nc1cc(Sc2cccc3cccnc23)c(O)c2ccccc12)c1ccc(F)cc1 | 11.4 µM | 2.43 µM |
| CC(=O)C1C(=O)C(=O)N(c2cccc([N+](=O)[O-])c2)C1=O (stereo not given) | > 100 µM | – |
| CC1=NN(C(=O)c2ccncc2)C(=O)C1 | > 100 µM | – |
| OCCNCCN1CCN(CCCN2c3ccccc3Sc3ccc(C(F)(F)F)cc32)CC1 | 41.8 µM | – |
| Cc1cccc(C)c1NC(=O)/C(=N/NC(N)=S)C(C)C(=O)c1ccc(Cl)cc1 (stereo not given) | > 100 µM | – |
| CC(=O)c1ccc2c(c1)CC1(C2)Cc2cc3c(cc2C1=O)CCC3 (stereo not given) | > 100 µM | – |
| C=CC[C@@H](N)C(=O)N(C)[C@@H](C)[C@@H](O)c1ccccc1 | > 100 µM | – |
| COc1ccc(-c2cc(Cc3cccs3)c(=O)[nH]n2)cc1 | > 100 µM | – |
| Oc1ccc(-c2cc(-c3cc(-c4ccc(O)cc4)no3)on2)cc1 | > 100 µM | – |
| O=C(O)CN1CCN(CC(=O)O)CC(=O)[O][Hg][O]C(=O)C1 | > 100 µM | > 75.3 µM |
| CC(=O)NC(CCCNC(=O)N(CCCl)N=O)C(=O)NCc1ccccc1 (stereo not given) | > 100 µM | – |

| SMILES | TGI | GI50 |
| --- | --- | --- |
| Nc1n[n+](CC(=O)c2ccccc2)c2sc(-c3ccccc3)nn12 | 89.4 µM | – |
| COC(=O)C1CC2CC(=NNC(N)=O)CC2C1 (stereo not given) | > 100 µM | – |
| CO/N=C(\COc1ccc2c(c1)[nH]c1ccccc12)c1ccc(F)cc1 | > 100 µM | 29.4 µM |
| NCCSS(=O)(=O)CCN | > 100 µM | – |
| O=C1c2cccnc2C(=O)c2c1c(C(=O)NCCCN1CCCCC1)c1ccccn21 | 5.81 µM | 0.997 µM |
| O=C(O)c1ccc(C2COc3ccc(Cl)cc3C2)cc1 (stereo not given) | > 100 µM | – |
| Cc1ccc(-c2nnc(-c3nn(-c4ccccc4)c4nc5ccccc5nc34)o2)cc1 | > 100 µM | – |
| CN(C)c1ccc(C(Cc2ccccc2)C2NC(=S)NC2=O)cc1 (stereo not given) | > 100 µM | – |
| C/C(=N\Nc1ccc([N+](=O)[O-])cc1[N+](=O)[O-])c1sc(-n2nc(-c3ccccc3)cc2-c2ccccc2)nc1C | > 100 µM | – |
| O=C1OC(=O)C(=C\c2ccc3c(c2)OCO3)/C1=C/c1ccc2c(c1)OCO2 | > 100 µM | – |
| CCCCn1c(N)c(-c2nc3ccccc3o2)sc1=S | 77.5 µM | – |
| COc1ccc2c(c1)N(CCO)C1=C(C(=O)OC1)C2c1cccc(F)c1 (stereo not given) | > 50 µM | 2.01 µM |
| CCOC(=O)c1c(C)nc2c1c(CN(C)C)c(O)c1[nH]c(C)c(C)nc12 | > 100 µM | – |
| CS(=O)(=O)OCC1CN(S(C)(=O)=O)c2cc(O)ccc21 (stereo not given) | 30.4 µM | – |
| COC(=O)[C@@H]1[C@H](OC(C)=O)CCC2[C@@]3(C[C@@H](c4ccoc4)O[C@@H]3OC)[C@H](C)CC[C@]21C(=O)OC (stereo not given in full) | > 25 µM | – |
| CC(C)(C)OC(=O)NC(Cc1ccccc1)OCc1ccccc1 (stereo not given) | 44.1 µM | – |
| COc1ccc(-c2cc(-c3ccc(C)cc3)nc3nc(=S)[nH]c(N)c23)cc1 | 75.6 µM | 27.9 µM |
| O=c1ssc(=Nc2ccccc2)n1-c1ccccc1 | > 100 µM | – |
| O=C(/C=C/c1cc2ccccc2[nH]c1=O)/C=C/c1cc2ccccc2[nH]c1=O | > 100 µM | > 100 µM |
| CC1(O)C=CC(=O)C=C1 | > 59 µM | – |
| COc1cc2c3c(c1)CCCN3CCC2 | > 10 µM | – |
| COc1cc(C2SCC(=O)N2c2cccc(Cl)c2)cc(OC)c1OC (stereo not given) | > 100 µM | – |
| COC(=O)C1(C)CCc2c(OC)ccc(OC)c2C1=O (stereo not given) | > 100 µM | – |

| SMILES | TGI | GI50 |
| --- | --- | --- |
| COc1cccc(OC(=O)c2ccc(C(F)(F)F)nc2Nc2cc(Cl)ccc2C)c1 | 95 µM | 21.4 µM |
| CN[C@@H](C)C(=O)N[C@H](C(=O)N1CCC[C@H]1C(=O)Nc1sc(-c2ncco2)nc1-c1ccccc1)C1CCCCC1 | > 100 µM | 36.8 µM |
| CN1c2ccccc2C(=O)NC12CCN(CCCC(=O)c1ccc(F)cc1)CC2 | > 100 µM | – |
| CCn1c2ccccc2c2ccc3c(c21)C(=O)C=CC3=O | 65.2 µM | – |
| CCOC(=O)C1=C(C)N(c2ccc(Cl)cc2)[C@]2(C#N)C(O)=C(Cl)C(Cl)=C(O)[C@]12C#N | > 100 µM | > 100 µM |
| C=C(Br)CNC(=O)Nc1ccc(Cl)c(Cl)c1 | 60.2 µM | – |
| CNCCCNCCCCNCCCN1C(=O)c2ccc3c4c(ccc(c24)C1=O)C(=O)N(CCCNCc1ccccc1OC)C3=O | 24.6 µM | 2.21 µM |
| Cc1ccc(NC(Nc2ccc(C)cc2C)=C(/C=C(\Cl)[N+](=O)[O-])[N+](=O)[O-])c(C)c1 | 29.2 µM | – |
| O=C1c2c(c3c4ccccc4[nH]c3c3ccc4ccccc4c23)C(=O)N1CCN1CCNCC1 | 2.94 µM | 1.54 µM |
| COC1/C=C/C(C)C(C(C)C(OC)C(C)CCC(=O)C(C)C(C/C=C/N(C)C=O)OC)OC(=O)C=CC2OC2(C)CC(OC)C(OC)C2=CC(=O)O[C@@H](C(C)C(OC)CC(OC)/C=C/C(C)C(O)C1)[C@H]2O (stereo not given in full) | 0.0564 µM | – |
| CCCCCCCCCCCCCCCCCC[n+]1ccc2c(C)c3c(c(C)c2c1)c1cc(O)ccc1n3CC | 19.7 µM | 3.58 µM |
| O=C(OCc1ccc2ccccc2n1)c1cn(C2CC2)c2cc(N3CCN(Cc4ccc5ccccc5n4)CC3)c(F)cc2c1=O | > 100 µM | > 81.2 µM |
| CCC(=O)C12OC3OC(C)(C)OC3C1OC(C)(C)O2 (stereo not given) | > 100 µM | – |
| N#Cc1c(N2CCOCC2)nc(=S)[nH]c1-c1ccco1 | > 100 µM | 11 µM |
| COc1cc2nc(N3CCCC3)nc(NCCc3ccccc3)c2cc1OC | 5.54 µM | 2.21 µM |
| O=C(NN1C(=O)CSC12CCCCC2)c1[nH]c2ccc(Br)cc2c1-c1ccccc1 | 79.7 µM | 27.6 µM |
| O=C(Nc1ccc(OCc2nnc(-c3ccc(Cl)cc3)o2)c(F)c1)Nc1ccc(Cl)c(C(F)(F)F)c1 | 16.9 µM | 2.99 µM |
| FC(F)(F)c1ccc(-c2cnc(-c3ncon3)nc2NC2CCCCCC2)cc1 | > 100 µM | > 100 µM |
| O=C(/C=C\c1cccc([N+](=O)[O-])c1)/C=C/c1cccc([N+](=O)[O-])c1 | > 100 µM | > 100 µM |
| CCCCCCCCCCCCCCCCCC1=NCCN1CCOC1=C(Cl)C(=O)c2ccccc2C1=O | 12 µM | 3.5 µM |
| CCC1(c2ccccc2)C(=O)N=C(c2ccccc2)N1CCc1ccccc1 (stereo not given) | > 100 µM | – |
| CN1C(=O)N(C)C2C1NN=c1s/c(=C\c3ccc(C(F)(F)F)cc3)c(=O)n12 (stereo not given) | > 100 µM | 6.37 µM |
